# Test results reported in PubChem BioAssay AID2546 (National Center for Advancing Translational Sciences (NCATS), 2010).
# The whole screen tested about 310,000 compounds, of which about 11,000 (3.5%) were called active. Inconclusive results, whose numbers are uncertain, are shown with a selection of clear calls. Calls follow the shape of the dose curve; as a rule, active = well fitted inhibition curve with a large enough effect; inconclusive = small, poorly fitted or top-dose-only effect, or effect the other way; inactive = flat fitted curve, though single readings scatter. No potency is given beside an inconclusive call; the fits are too rough.
# Assay: VP16 counterscreen qHTS for inhibitors of ROR gamma transcriptional activity;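 also: Gal4-VP16 expression switched on by copper sulfate through the metallothionein promoter; nearly all actives have a fitted effect of over 50% in size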
# Details: Drosophila S2 Gal4-VP16 UAS-luciferase, luminescence, 20 h; activity, negative = inhibition: at 53.6 µM (top of the series)
# % is scaled to controls: 0 for no effect and ±100 for the full control effect; potency is read from the fitted curve at half-maximal effect; tags tell the direction and shape of the fitted curve.
SMILES,Potency,"activity, negative = inhibition"
O=C(CSc1cccc2cccnc12)Nc1ccccc1F,"inconclusive [inhibitor, single point]",–
Cc1ccc(C2c3[nH]c4ccccc4c3C[C@H]3C(=O)N(c4ccccc4C(=O)NCCCN4CCOCC4)C(=O)N23)cc1 (stereo partly specified),"inconclusive [inhibitor, single point]",–
N#C/C(=C1/C(=O)Nc2ccc(Br)cc21)c1ccccn1,inactive,–
CCN(CC1CCCO1)C(=O)CCc1nnc(CCc2ccc(OC)cc2)o1 (stereo unspecified),inactive,–
COc1ccc(C(=O)N2CCCC2(C#N)c2ccccc2)cc1[N+](=O)[O-] (stereo unspecified),inactive,–
Cc1ccc(COC(=O)c2nn(C)c(=O)c3ccccc23)cc1,"inconclusive [inhibitor, full curve, poor fit]",–
CCC(C(=O)O)C1OC(C(C)C(O)C(C)C(=O)C(CC)C2OC3(C=CC(O)C4(CCC(C)(C5CCC(O)(CC)C(C)O5)O4)O3)C(C)CC2C)C(C)CC1C (stereo unspecified),active: 0.447 µM,–
COc1ccc(N/N=C/c2c(C(=O)O)ccc3ccccc23)cc1,active: 4.47 µM,–
CCNS(=O)(=O)c1ccc(S(=O)(=O)N(Cc2ccccn2)C2CCCCC2)cc1,"inconclusive [inhibitor, single point]",–
Cc1ccc(OCCCOc2cccc3cccnc23)cc1C,"inconclusive [inhibitor, single point]",–
Cc1cccc(OCC(=O)Nc2ccc3c(c2)nc2n3CCOC2)c1,inactive,–
NC(=S)N/N=C/c1ccccc1[N+](=O)[O-],"inconclusive [inhibitor, single point]",–
O=C(NC12CC3CC(CC(C3)C1)C2)C1CC(=O)N(c2ccccc2)C1 (stereo unspecified),inactive,–
CCOc1cc(CNc2ccccc2SC)ccc1O,inactive,–
Cc1nnc(NC(=O)CN2CCN(Cc3ccc(F)cc3Cl)CC2)s1,"inconclusive [inhibitor, single point]",–
O=C(Nc1cccc(-c2nc3ccccc3s2)c1)c1cccs1,"inconclusive [activator, single point]",–
CCCOc1ccc(-c2c(C(=O)N/N=C/c3ccc(OCC)cc3)nnn2-c2nonc2N)cc1,active: 10 µM,–
CCN1C(=O)c2cccc3c(NC(=O)c4ccccc4)ccc1c23,"inconclusive [activator, partial curve]",–
COc1ccc(N2CCN(S(=O)(=O)c3ccc(OC)c(C(=O)N4CCOCC4)c3)CC2)cc1,inactive,–
COc1ccc(C(=O)OCC(=O)Nc2ccc(Cl)c(C(F)(F)F)c2)c(OC)c1OC,"inconclusive [inhibitor, single point]",–
Cc1ccc(CNCc2cccnc2)s1,inactive,–
Cc1cccc2sc(NNC(=O)C3COc4ccccc4O3)nc12 (stereo unspecified),active: 11.2 µM,–
CCn1c(SCC(=O)Nc2sc3c(c2C#N)CCCC3)nnc1-c1ccco1,inactive,–
Nn1cnnc1SCC(=O)Nc1ccc(C2CCCCC2)cc1,inactive,–
CCn1cc(/C=N/NC(=O)c2ccc3c(c2)OCO3)c(C)n1,inactive,–
Clc1ccc(-n2ncc3c(NCc4ccco4)ncnc32)cc1,"inconclusive [inhibitor, single point]",–

SMILES,Potency,"activity, negative = inhibition"
Cc1ccccc1N=C1NC(=O)CC(c2ccccc2)S1 (stereo unspecified),"inconclusive [inhibitor, single point]",–
O=C(N/N=C/c1ccc[nH]1)c1cccnc1,inactive,–
CCc1ccccc1NC(=O)Cn1cccc1C1=NC(c2ccccc2)CO1 (stereo unspecified),"inconclusive [activator, single point]",–
CC[C@@]1(O)CC2CN(CCc3c([nH]c4ccccc34)[C@](C(=O)OC)(c3cc4c(cc3OC)N(C)C3[C@@](O)(C(=O)OC)C(OC(C)=O)[C@]5(CC)C=CCN6CC[C@@]43C65)C2)C1 (stereo partly specified),inactive,–
O=C(Nc1ccc(S(=O)(=O)N2CCCC2)cc1)C1CCCN1C(=O)c1cccs1 (stereo unspecified),inactive,–
CC1CCN(C(=O)c2ccc(S(=O)(=O)Cc3cc(F)ccc3F)c([N+](=O)[O-])c2)CC1,"inconclusive [inhibitor, single point]",–
CCNC(=S)N1N=C2c3ccccc3CCC2C1c1ccc(F)cc1 (stereo unspecified),"inconclusive [inhibitor, single point]",–
CC1CCCN(Cc2nc3c(c(=O)n(C)c(=O)n3C)n2Cc2c(F)cccc2Cl)C1 (stereo unspecified),"inconclusive [inhibitor, full curve]",–
COc1cccc(Nc2nc(N)c([N+](=O)[O-])c(NCc3ccco3)n2)c1,"inconclusive [inhibitor, partial curve, poor fit]",–
O=C(C1CCCN(S(=O)(=O)c2ccc(Br)s2)C1)N1CCCCCC1 (stereo unspecified),"inconclusive [inhibitor, single point]",–
Cc1cc(N2CCCCC2)nc(SCc2ccc(C#N)cc2)n1,"inconclusive [inhibitor, single point]",–
Cc1ccc(C)c2[nH]c(=O)c(CN(CCN3CCCC3)C(=O)Nc3ccc(F)cc3)cc12,inactive,–
CCOc1cccc(SCc2noc(C(=O)NC(C)C)c2C(=O)O)c1,"inconclusive [inhibitor, single point]",–
O=C(NNC(=S)Nc1ccc(Cl)cc1Cl)C1CC1,"inconclusive [inhibitor, single point]",–
CCCN1C(=O)/C(=C/c2ccc(N3CCOCC3)cc2)NC1=S,active: 7.94 µM,–
O=c1oc(-c2ccco2)nc2c1cnn2-c1ccccc1,"inconclusive [inhibitor, single point]",–
C/C(=N\NC(=S)NC(C)C)c1ccccc1,active: 3.55 µM,–
CCN(CC)Cc1nc2c(c(=O)[nH]1)C1(CCCCC1)Cc1ccccc1-2,active: 11.2 µM,–
CSc1ccc(/C=N/Nc2cccc(C(=O)O)c2)cc1,"inconclusive [inhibitor, single point]",–
CCCOc1ccc(C(=O)CCCC(=O)c2ccc(OCCC)cc2)cc1,inactive,–
CCNC(=S)NNc1ccccc1,active: 3.98 µM,–
CSc1ccc(/C=C/c2ccc3cccc(O)c3n2)cc1,"inconclusive [inhibitor, single point]",–
CN(Cc1ccccc1)C(=O)COC(=O)/C=C/c1ccco1,inactive,–
Cc1ccc(-n2nc3ccc(NC(=O)C(C)C)cc3n2)cc1,"inconclusive [inhibitor, partial curve, poor fit]",–
COc1ccc2c(c1)NC(c1cc(Cl)cc(Cl)c1O)c1cccn1-2 (stereo unspecified),inactive,–
COc1ccc(C2NN=C(c3ccc(C)cc3)S2)cc1OC (stereo unspecified),"inconclusive [inhibitor, partial curve]",–

SMILES,Potency,"activity, negative = inhibition"
COC(=O)CSc1nc(NCc2ccccc2)nc(N(C)C)n1,–,inactive: 0.474% [at 10 µM]
CC(=O)c1cccc(S(=O)(=O)NCC2CCCCC2)c1,inactive,–
O=C(COC(=O)c1ccc(Cl)c(S(=O)(=O)N2CCCCC2)c1)NCc1ccco1,inactive,–
Cc1csc2nc(CSc3nc4ccccc4o3)c(Br)n12,"inconclusive [inhibitor, single point]",–
OC(COCCC12CC3CC(CC(C3)C1)C2)CN1CCCC1 (stereo unspecified),inactive,–
COC(=O)C1=C(C)OC(N)=C(C#N)C1c1ccc(OC)c(CSc2ccccn2)c1 (stereo unspecified),"inconclusive [activator, single point]",–
O=C(CSc1nnc2ccc(-c3ccccc3)nn12)NCC1CCCO1 (stereo unspecified),inactive,–
O=C(c1ccc(Cl)c([N+](=O)[O-])c1)N1CCN(c2ccccn2)CC1,inactive,–
COc1ccccc1/C=C\C(=O)NCC(=O)N/N=C/c1cccc(OC)c1O,active: 7.08 µM,–
Cc1ccc2oc(=O)n(CCOc3ccccc3)c2c1,inactive,–
O=C(CSc1nnc(-c2cccnc2)n1Cc1ccccc1)NCc1ccco1,inactive,–
CCN1CCN(c2ncnc3scc(-c4ccc(C)c(C)c4)c23)CC1,inactive,–
CCC1(C)Cc2nc3[nH]c(=S)n(-c4ccccc4)c(=O)c3cc2CO1 (stereo unspecified),"inconclusive [inhibitor, partial curve]",–
COc1ccc(CCNC(=O)C/C(C)=N/NC(=O)C2CCCCC2)cc1OC,"inconclusive [activator, single point]",–
CCOc1cc(NC(=S)NCC2CCCO2)c(OCC)cc1NC(=O)c1ccccc1 (stereo unspecified),active: 11.2 µM,–
COc1ccc(N(CC(=O)Nc2ccc(C(N)=O)cc2)S(=O)(=O)c2ccc(C)c([N+](=O)[O-])c2)cc1,"inconclusive [activator, full curve, poor fit]",–
Nc1[nH]c2cc([N+](=O)[O-])ccc2c1-c1ccccn1,"inconclusive [inhibitor, single point]",–
O=C(Nc1nc(-c2ccccn2)cs1)c1ccc(S(=O)(=O)N2CCCCC2)cc1,active: 6.31 µM,–
Cc1ccc(C(=O)Nc2nnc(-c3ccco3)o2)cc1,"inconclusive [inhibitor, full curve, poor fit]",–
Cc1ccc(NC(=O)CN(C)C(=O)COc2ccc(C(=O)c3ccc(F)cc3)cc2)cc1,"inconclusive [activator, single point]",–
Nc1nonc1-c1nc2ccccc2[nH]1,inactive,–
COC(=O)[C@H](C)[C@H](CC(C)C)NC(=O)[C@H](C)[C@H](CC(C)C)NC(=O)c1ccccn1,inactive,–
CNc1c(C(=O)O)ccc2c1C(=O)c1ccccc1C2=O,"inconclusive [activator, single point]",–
CCN1CCN(c2ccc(S(=O)(=O)N3CCCCC3)cc2NC(=O)/C=C/c2cc(OC)ccc2OC)CC1,"inconclusive [inhibitor, single point]",–
